The values that follow come from a collection of fitness landscapes (doi:10.1126/science.1257360).

B1: PhoQ; a variant is named by its letters at X, in order, P23837 (parent)
chain: MKKLLRLFFPLSLRVRFLLATAAVVLVLSLAYGMVALIGYSVSFDKTTFRLLRGESNLFYTLAKWENNKLHVELPENIDKQSPTMTLIYDENGQLLWAQRDVPWLMKMIQPDWLKSNGFHEIEADVNDTSLLLSGDHSIQQQLQEVREDDDDAEMTHSVAVNVYPATSRMPKLTIVVVDTIPVELKSSYMVWSWFIYVLSANLLLVIPLLWVAAWWSLRPIEALAKEVRELEEHNRELLNPATTRELTSLVRNLNRLLKSERERYDKYRTTLTDLTHSLKTPLXXLQXXLRSLRSEKMSVSDAEPVMLEQISRISQQIGYYLHRASMRGGTLLSRELHPVAPLLDNLTSALNKVYQRKGVNISLDISPEISFVGEQNDFVEVMGNVLDNACKYCLEFVEISARQTDEHLYIVVEDDGPGIPLSKREVIFDRGQRVDTLRPGQGVGLAVAREITEQYEGKIVAGESMLGGARMEVIFGRQHSAPKDE

The other results are listed elsewhere or left out. A value given as a limit tells only on which side of the number the result lay.

The variants in the experiment derive from B1. Put plainly: enrichment ratio after two sorts for PhoP signalling (ratio (wild type AVST 3.29)); higher = more functional. To be noted: with PhoP (E. coli).
For the variant HGPC, the enrichment ratio was no more than 0.25.

Regarding VAMW, the enrichment ratio was no more than 0.25.

Turning to YEVS, the enrichment ratio worked out at 0.342. With LVYQ, the enrichment ratio came to 0.888. As for PRIA, the enrichment ratio is no more than 0.25. As for FLEK, the enrichment ratio is no more than 0.25.

On to FTYI, for which the enrichment ratio was no more than 0.25. ELIM: the enrichment ratio is no more than 0.25. As for YDVL, the enrichment ratio was no more than 0.25.

Regarding WWPN, the enrichment ratio was no more than 0.25.

As to ETDY, the enrichment ratio was no more than 0.25.

In the case of PCSM, the enrichment ratio was no more than 0.25. VMHY: the enrichment ratio was no more than 0.25. AFMW: the enrichment ratio is no more than 0.25. On to VYLR, for which the enrichment ratio was no more than 0.25. As for KLEN, the enrichment ratio is no more than 0.25. With LQDI, the enrichment ratio is no more than 0.25. With VRLS, the enrichment ratio was no more than 0.25. The figure for LSDK is no more than 0.25; for VMSY it is no more than 0.25.

On to YTRF, for which the enrichment ratio was no more than 0.25. For MRNM, the enrichment ratio is no more than 0.25. With LIAD, the enrichment ratio is no more than 0.25. In the case of EKMS, the enrichment ratio is no more than 0.25. The value for IYQP was no more than 0.25. In the case of SPKK, the enrichment ratio is no more than 0.25.

QHCP: the enrichment ratio was no more than 0.25. Regarding QTGK, the enrichment ratio was no more than 0.25. In the case of FIMS, the enrichment ratio is no more than 0.25.

Regarding HRKD, the enrichment ratio was no more than 0.25. In the case of FGYI, the enrichment ratio was no more than 0.25. The figure for IMLV is no more than 0.25; for LCMA it is no more than 0.25; for KGTV it is no more than 0.25.

Regarding HNAE, the enrichment ratio was no more than 0.25.

On to LYNP, for which the enrichment ratio was no more than 0.25. The figure for HWDS is no more than 0.25; for WYIQ it is no more than 0.25. Turning to MPKI, the enrichment ratio is no more than 0.25. Turning to IDQD, the enrichment ratio was no more than 0.25.

For the variant YNIC, the enrichment ratio was no more than 0.25. Consider DWFW, for which the enrichment ratio was no more than 0.25. On to ETRC, for which the enrichment ratio is no more than 0.25. The figure for PGGL is no more than 0.25.

For the variant IMPQ, the enrichment ratio was no more than 0.25. For the variant IGGW, the enrichment ratio is no more than 0.25. As for TTNV, the enrichment ratio is 7.65. For the variant YMCE, the enrichment ratio is no more than 0.25. As to PLMY, the enrichment ratio is no more than 0.25. LYDS: the enrichment ratio is no more than 0.25. On to KLKN, for which the enrichment ratio was no more than 0.25. For the variant FVNC, the enrichment ratio was no more than 0.25. As to MNFQ, the enrichment ratio amounted to 4.7. WMKD: the enrichment ratio was no more than 0.25. Consider DVHY, for which the enrichment ratio was no more than 0.25. The value for QGQY was no more than 0.25; that for VYYM was no more than 0.25; that for PKMT was no more than 0.25. The figure for INCM is 1.22. Take KFTY: the enrichment ratio was no more than 0.25. The figure for WDWP is no more than 0.25; for TYCM it is 0.414. The figure for QFLM is no more than 0.25; for YKGG it is no more than 0.25. Regarding YMTH, the enrichment ratio was no more than 0.25. With TALQ, the enrichment ratio worked out at 15.2. The figure for FMFQ is no more than 0.25; for EGIS it is no more than 0.25. The figure for RMPV is no more than 0.25. For the variant SRYG, the enrichment ratio is no more than 0.25.

For the variant RPAN, the enrichment ratio was no more than 0.25. Consider FCYD, for which the enrichment ratio was no more than 0.25. The figure for HPHW is no more than 0.25; for YAYA it is no more than 0.25; for MMTY it is no more than 0.25.

On to NWQL, for which the enrichment ratio is no more than 0.25. Regarding IGCD, the enrichment ratio is no more than 0.25. Turning to MQCV, the enrichment ratio was found to be 4.03.

On to MTQD, for which the enrichment ratio is no more than 0.25. Turning to SDPP, the enrichment ratio was no more than 0.25. The value for KFIS was no more than 0.25; that for PMIP was no more than 0.25; that for QYPL was no more than 0.25.

As to YGTH, the enrichment ratio is no more than 0.25. Regarding FQEV, the enrichment ratio was no more than 0.25. Consider SLNE, for which the enrichment ratio was no more than 0.25. The figure for SSPG is no more than 0.25; for TSIL it is no more than 0.25; for WWTI it is no more than 0.25. Turning to FCDI, the enrichment ratio was no more than 0.25.

For ENQY, the enrichment ratio was no more than 0.25. As for HKIM, the enrichment ratio is no more than 0.25. As for ILFW, the enrichment ratio is no more than 0.25. VDGN: the enrichment ratio was no more than 0.25. For HDTT, the enrichment ratio was no more than 0.25. In the case of NVQP, the enrichment ratio was no more than 0.25. EKYY: the enrichment ratio is no more than 0.25. The value for QFTR was no more than 0.25. The figure for WRAN is no more than 0.25. On to EHFY, for which the enrichment ratio was no more than 0.25. With FILC, the enrichment ratio is no more than 0.25. In the case of IWDL, the enrichment ratio is no more than 0.25. In the case of MAHA, the enrichment ratio was no more than 0.25.

As to KRQY, the enrichment ratio was no more than 0.25. Consider RMVE, for which the enrichment ratio is no more than 0.25. With MGFW, the enrichment ratio was no more than 0.25. As for KATE, the enrichment ratio was no more than 0.25. For FKGL, the enrichment ratio is no more than 0.25. The figure for TIIE is 1.03; for FTSR it is 0.29; for FLIS it is no more than 0.25. In the case of DINH, the enrichment ratio is no more than 0.25. On to FHEY, for which the enrichment ratio is no more than 0.25.

Turning to AMPD, the enrichment ratio was no more than 0.25. In the case of DSVH, the enrichment ratio is no more than 0.25. Turning to RHAE, the enrichment ratio was no more than 0.25. With MMIE, the enrichment ratio is no more than 0.25.

Turning to HGFR, the enrichment ratio was no more than 0.25. As for VDLY, the enrichment ratio is no more than 0.25. In the case of NRQM, the enrichment ratio is no more than 0.25. Take RTNN: the enrichment ratio was no more than 0.25.

Consider PRWE, for which the enrichment ratio is no more than 0.25. With VDEW, the enrichment ratio is no more than 0.25. As to MGGY, the enrichment ratio is 6.28. In the case of LQDQ, the enrichment ratio was no more than 0.25. In the case of LLKS, the enrichment ratio is no more than 0.25. The value for DHLG was no more than 0.25; that for FMIR was 0.369; that for VYIK was no more than 0.25. The value for LLPR was no more than 0.25; that for WNSP was no more than 0.25; that for QSWW was no more than 0.25. LQVQ: the enrichment ratio was no more than 0.25. VLQV: the enrichment ratio is no more than 0.25. The figure for WIPN is no more than 0.25; for MIGN it is 5.31. With WSHQ, the enrichment ratio is no more than 0.25. Turning to FTAG, the enrichment ratio is no more than 0.25. As for PTLS, the enrichment ratio was no more than 0.25. For the variant YEEI, the enrichment ratio is no more than 0.25. The value for EPCC was no more than 0.25; that for FFYA was no more than 0.25. The figure for GFAR is no more than 0.25; for DFYW it is no more than 0.25; for RRIM it is no more than 0.25. The value for QTHY was no more than 0.25; that for YNKD was no more than 0.25.

For the variant RATQ, the enrichment ratio was no more than 0.25.

Consider VMPR, for which the enrichment ratio was no more than 0.25. For MYDA, the enrichment ratio was no more than 0.25.

As for HSLL, the enrichment ratio came out at 11.1.

Take ERHF: the enrichment ratio was no more than 0.25.

Turning to MAAD, the enrichment ratio is no more than 0.25.
